Measured values taken from PubChem BioAssay AID463173 (ICCB-Longwood Screening Facility, Harvard Medical School, 2010).
Screen size: about 52,000 compounds; about 1,700 (3.3%) were called active. Cut-off read from the data, not from the text of the source: active = survival mostly below about 52% (no sharp cut-off); inactive = mostly above about 56%. The list shows a part of the results.

system: Wild type; assay: growth inhibition of S. aureus wild type versus tarO mutant, primary screen, teichoic acid synthesis inhibitors, RN4220, OD600 (AID 463173); conditions: S. aureus RN4220 wild type/DeltatarO growth, OD600, 18 h, active compounds read low, screened at 18.75 µg/mL (by protocol)

| Compound | survival |
| --- | --- |
| COc1ccc(S(=O)(=O)N2CCN(S(=O)(=O)c3ccccc3)CC2)cc1 | inactive: 105% |
| CCc1ccc(S(=O)(=O)c2nnn3c2nc(Nc2cc(OC)ccc2OC)c2sccc23)cc1 | inactive: 88% |
| COc1ccccc1Nc1sc(C(=O)c2ccc(C)cc2C)c(N)c1S(=O)(=O)c1ccccc1 | inactive: 76% |
| O=S(=O)(NCCS(=O)(=O)N1CCN(c2ccccc2)CC1)c1ccc(Br)cc1 | inactive: 77% |
| COc1ccc(CC(=O)Nc2sc3c(c2C(=O)Nc2ccccc2)CCCCC3)cc1 | inactive: 103% |
| O=C(NCC1CCCO1)C1CCCN1C(=O)Nc1ccc(Cl)cc1 (configuration not stated) | inactive: 91% |
| Cc1ccc(CCNC(=O)CS(=O)Cc2nc(-c3ccccc3Cl)oc2C)cc1 (configuration not stated) | inactive: 72% |
| Cc1c(C(=O)Nc2nc(-c3ccc(F)cc3)ns2)oc2ccc(Cl)cc12 | inactive: 83% |
| COc1ccccc1C(=O)Nc1ccccc1OCc1cc(=O)n2ccccc2n1 | inactive: 92% |
| N#CC(C#N)=C(N)/C(C#N)=C/c1ccco1 | inactive: 120% |
| Cc1cc(NC(=O)c2ccc(Cl)c(Cl)c2)ccc1NC(=O)c1ccco1 | inactive: 95% |
| O=C(Cc1ccccc1)Nc1sc2c(c1C(=O)Nc1ccc(Br)cc1)CCC2 | inactive: 77% |
| Cc1ccc2oc(C(=O)Nc3cccc(Cl)c3)cc(=O)c2c1 | inactive: 111% |
| O=C(NCCc1ccccc1)c1nc(-c2ccc(Cl)cc2)n2c1CCCCC2 | inactive: 72% |
| CC1CCCCN1C(=O)c1cc(-c2ccccc2)on1 (configuration not stated) | inactive: 126% |
| O=C(Nc1ccc(F)cc1)c1csc2c1CCCCC2 | inactive: 68% |
| COc1cccc(N2CC(NC(=O)c3ccc(S(=O)(=O)N4CCOCC4)cc3)CC2=O)c1 (configuration not stated) | inactive: 121% |
| COc1ccc(CNc2nc3c(-c4ccccc4)nnn3c3ccccc23)cc1 | inactive: 90% |
| Cc1cc(C)cc(OCC(=O)Nc2c(C)ccc3nsnc23)c1 | inactive: 81% |
| COc1ccc(S(=O)(=O)c2cnc3ccc(Cl)cc3c2N2CCCCC2C)cc1 (configuration not stated) | inactive: 23% |
| CC1CCCc2sc3nc(SCC(=O)c4ccc(Br)cc4)nc(N)c3c21 (configuration not stated) | inactive: 66% |
| CCN(CC)C(=O)CSc1nsc(SCC(=O)N(CC)CC)c1C#N | inactive: 102% |
| Cc1ccccc1NC(=O)CSc1nc2nccnc2c(=O)n1CCc1c[nH]c2ccccc12 | inactive: 72% |

| Compound | survival |
| --- | --- |
| Cc1cccc(N2CCN(C(=O)Cn3nc(C)n4cccc4c3=O)CC2C)c1 (configuration not stated) | inactive: 89% |
| CN(Cc1ccccc1)S(=O)(=O)c1nnc(NC(=O)c2cccc(Cl)c2)s1 | active: -1% |
| O=C(CSc1nnc(-c2cccc(F)c2)o1)N1c2ccccc2Sc2ccccc21 | inactive: 103% |
| Cc1sc2nc(CN3CCN(C(=O)c4ccco4)CC3)n(C(=O)c3ccco3)c(=O)c2c1C | inactive: 116% |
| Cc1nc(NCCNC(=O)c2cccs2)c2c3c(sc2n1)CCCC3 | inactive: 108% |
| COc1ccc(NC(=O)CSc2nc(-c3ccco3)cc(C(F)(F)F)n2)cc1OC | inactive: 85% |
| CCOc1ccc(N(CC)S(=O)(=O)c2cc(Br)cc3c2N(C(C)=O)C(C)C3)cc1 (configuration not stated) | inactive: 68% |
| Cc1cccc(NC(=O)CSc2nccn2Cc2ccc(F)cc2)c1C | inactive: 71% |
| CCCCN(C)CCCNC(=O)Cn1ncc2c3ccccc3n(Cc3ccccc3)c2c1=O | inactive: 123% |
| CCOC(=O)c1cc2c(nc1N)CC(C)(C)OC2 | inactive: 106% |
| O=C1CC(c2ccccc2)Sc2nc3ccccc3n21 (configuration not stated) | inactive: 115% |
| Cc1ccccc1NC(=O)c1ccc2c(c1)c(C)c(C)n2Cc1ccccc1 | inactive: 74% |
| O=C(CN1N=C(c2ccc(Cl)cc2)CCC1=O)NCCc1ccc(Cl)cc1 | inactive: 87% |
| COCc1nc2ccccc2n1CCOc1cccc(C)c1 | inactive: 53% |
| COc1ccc(S(=O)(=O)N2CCCN(CC(=O)Nc3ccc(NC(C)=O)cc3)CC2)cc1 | inactive: 68% |
| CC(=O)c1cccc(NC(=O)c2oc3c(c2C)-c2nn(Cc4ccc(Cl)cc4)cc2CC3)c1 | inactive: 79% |
| COc1cccc(-c2cc(C(F)(F)F)n3ncc(C(=O)NN4CCN(C)CC4)c3n2)c1 | inactive: 104% |
| CCOc1ccccc1CN1CCN(S(=O)(=O)c2ccccc2)CC1 | inactive: 105% |
| CCOC(=O)c1c(-c2ccccc2)oc2ccc(NS(=O)(=O)c3cc(C)c(C)cc3C)cc12 | inactive: 81% |
| COc1ccccc1NC(=O)CSC1=Nc2ccccc2C2=NC(CC(=O)NCc3ccco3)C(=O)N12 (configuration not stated) | inactive: 135% |
| COc1ccc(NC(=O)c2oc3ccc(S(=O)(=O)N4CCCCC4)cc3c2C)cc1 | inactive: 85% |
| CCOc1ccc(CNC(=O)C2Cc3ccccc3N2C(=O)CC)cc1OC (configuration not stated) | inactive: 68% |
| CCCc1nn2c(=O)cc(COC(=O)c3ccccc3NC(=O)COc3ccccc3F)nc2s1 | inactive: 91% |

| Compound | survival |
| --- | --- |
| Cc1cccc(CNC(=O)CCn2c(=O)c3cccn3c3ccc(F)cc32)c1 | inactive: 112% |
| Cc1ccc(NC(=O)CN2C(=O)CCc3cc(S(=O)(=O)N4CCOCC4)ccc32)cc1F | inactive: 60% |
| COc1ccc(OC)c(CNC(=O)c2ccc(Sc3ccc(C)cc3)c(N)c2)c1 | inactive: 87% |
| CCc1ccc(-n2nc(C)c3c(C)cc(=O)n(Cc4nc(-c5ccccc5)oc4C)c32)cc1 | inactive: 124% |
| CCCOC(=O)c1c(NC(=O)c2nc3ncccn3n2)sc(C(N)=O)c1C | inactive: 69% |
| Cc1nc2c(C(=O)NCCCN(CC(C)C)CC(C)C)cnn2c(C)c1Cc1c(F)cccc1Cl | inactive: 83% |
| Cc1cccc(NS(=O)(=O)c2c(C)nc3sccn3c2=O)c1C | inactive: 99% |
| O=C(NCc1ccccc1Cl)c1cc2c(s1)-c1ccc(Cl)cc1SC2 | inactive: 92% |
| CCSc1nc2c([nH]c3ccccc32)c(=O)n1CC | inactive: 86% |
| COc1cccc(CNCCNC(=O)c2nonc2N)c1 | inactive: 86% |
| CC(NC(=O)CSc1ncccn1)c1ccccc1 (configuration not stated) | inactive: 100% |
| Cc1ccc(C(=O)CSc2nc(-c3ccccc3)nc3c2CCCC3)cc1 | inactive: 55% |
| CCOc1ccccc1NC(=O)N1CC(CC)Oc2ccccc21 (configuration not stated) | inactive: 81% |
| CCOC(=O)CSc1nc(-c2ccc(C)cc2C)cc(-c2ccccc2)c1C#N | inactive: 63% |
| COC(=O)c1cc2sccc2n1CCC#N | inactive: 102% |
| Cc1cccc(CSc2ncc(Cl)c(C(=O)Nc3sc4c(c3C(N)=O)CCCC4)n2)c1 | inactive: 116% |
| CC(C)(C)C(=O)Nc1cccc(-c2cn3cccnc3n2)c1 | inactive: 70% |
| Cc1ccc(-c2nnc(N3CCOCC3)c3ccccc23)cc1S(=O)(=O)N1CCN(C)CC1 | inactive: 102% |
| CC(=O)N1CCc2c(sc(NC(=O)CSc3ccccc3)c2-c2nc3ccccc3s2)C1 | inactive: 120% |
| COc1cccc(-n2c(=O)c3c(C)c(C)sc3n(CC(=O)NCc3ccc(C)cc3)c2=O)c1 | inactive: 75% |
| O=C(N/N=C/c1ccccc1)Nc1ccccc1 | inactive: 102% |
| CCn1c(CCc2ccccc2)n[nH]c1=S | inactive: 114% |
| Cc1c(C(=O)NCc2cccc(Cl)c2)sc2ncnc(N(C)C3CCCCC3)c12 | inactive: 78% |

| Compound | survival |
| --- | --- |
| CC(=O)NC1C(=O)N(C(C)C)c2ccccc21 (configuration not stated) | inactive: 96% |
| O=C(Cn1c(=O)nc(-c2ccccc2)c2ccccc21)Nc1cccc(C(F)(F)F)c1 | inactive: 126% |
| Cc1ccc(Cc2c(C)nc3nc(SCC(=O)NC4CCC(C)CC4)nn3c2C)cc1 (configuration not stated) | inactive: 129% |
| c1ccc(C2SCCN2c2ccccc2)cc1 (configuration not stated) | inactive: 86% |
| CCOC(=O)c1ccc2c(c1)N(CC(=O)N(C)c1ccccc1)C(=O)c1ccccc1S2 | inactive: 110% |
| COc1ccc(-c2cn(-c3ccc(C)cc3)c(S(=O)(=O)CC(=O)Nc3ccc(F)cc3)n2)cc1 | inactive: 110% |
| COc1ccccc1NC(=O)c1cc(=O)c2ccc(C)c(C)c2o1 | inactive: 81% |
| CCOc1ccc(CCNC(=O)c2cc3c(=O)oc4ccc(C)cc4c3s2)cc1OCC | inactive: 89% |
| Cc1nn(CCC(=O)Nc2cc(F)ccc2F)c(=O)c2nn(-c3ccccc3)c(C)c12 | inactive: 80% |
| N#C/C(=C\C1CC=CCC1)c1nc2ccccc2[nH]1 (configuration not stated) | inactive: 125% |
| N#C/C(=C\c1ccc(-c2ccc(C(=O)O)cc2)o1)C(=O)Nc1ccccc1C(=O)O | inactive: 70% |
| COc1cc(Nc2nc(SCC(=O)c3ccc(Br)cc3)nc3ccccc23)cc(OC)c1 | inactive: 81% |
| O=C(CC1N=C2c3ccccc3N=C(SCc3cccc(Cl)c3)N2C1=O)NCc1ccc2c(c1)OCO2 (configuration not stated) | inactive: 86% |
| CC1CCCCN1C(=O)CSc1n[nH]c(-c2ccccc2Cl)n1 (configuration not stated) | inactive: 72% |
| COc1cccc(C2=C(C(C)=O)Sc3nnc(C4CCCCC4)n3N2C(C)=O)c1 | inactive: 71% |
| COc1cccc(CNC(=O)CSc2n[nH]c(-c3ccccc3Cl)n2)c1OC | inactive: 133% |
| CN1CCN(C(=O)CCCC(=O)O)CC1 | inactive: 114% |
| CCOc1ccccc1CNC(=O)c1cn(-c2ccc(OC)cc2)c(=O)c2ccccc12 | inactive: 111% |
| CCOc1ccc(NC(=O)[C@H]2O[C@@H]3OC(C)(C)O[C@@H]3[C@H]3OC(C)(C)O[C@H]32)cc1 | inactive: 90% |
| CCOC(=O)c1c(NC=O)sc2c1CCCC2 | inactive: 113% |
| Cc1cccc(NC(=O)CSc2nc(=O)n(Cc3ccco3)c3c2CCC3)c1C | inactive: 71% |
| CCc1nn(CC(=O)NCc2ccccc2Cl)c(=O)c2cc3ccccc3n12 | inactive: 80% |
| O=c1c(N2CCN(c3cccc(Cl)c3)CC2)csc2ccccc12 | inactive: 86% |
